In all, about 400,000 compounds went through this assay and about 2,200 (0.55%) were called active. The inconclusive results got no clear call from the source; some entries with a clear call stand among them for comparison. Calls follow the shape of the dose curve; as a rule, active = well fitted inhibition curve with a large enough effect; inconclusive = small, poorly fitted or top-dose-only effect, or another doubt; inactive = no such curve, though single readings can be large or run the other way. Potencies beside an inconclusive call are fits to weak or partial responses and may not hold up.
Molecular target: DNA polymerase kappa (Homo sapiens) (UniProt Q9UBT6)
Chain of UniProt Q9UBT6 (Q9UBT6 whole entry, looked up): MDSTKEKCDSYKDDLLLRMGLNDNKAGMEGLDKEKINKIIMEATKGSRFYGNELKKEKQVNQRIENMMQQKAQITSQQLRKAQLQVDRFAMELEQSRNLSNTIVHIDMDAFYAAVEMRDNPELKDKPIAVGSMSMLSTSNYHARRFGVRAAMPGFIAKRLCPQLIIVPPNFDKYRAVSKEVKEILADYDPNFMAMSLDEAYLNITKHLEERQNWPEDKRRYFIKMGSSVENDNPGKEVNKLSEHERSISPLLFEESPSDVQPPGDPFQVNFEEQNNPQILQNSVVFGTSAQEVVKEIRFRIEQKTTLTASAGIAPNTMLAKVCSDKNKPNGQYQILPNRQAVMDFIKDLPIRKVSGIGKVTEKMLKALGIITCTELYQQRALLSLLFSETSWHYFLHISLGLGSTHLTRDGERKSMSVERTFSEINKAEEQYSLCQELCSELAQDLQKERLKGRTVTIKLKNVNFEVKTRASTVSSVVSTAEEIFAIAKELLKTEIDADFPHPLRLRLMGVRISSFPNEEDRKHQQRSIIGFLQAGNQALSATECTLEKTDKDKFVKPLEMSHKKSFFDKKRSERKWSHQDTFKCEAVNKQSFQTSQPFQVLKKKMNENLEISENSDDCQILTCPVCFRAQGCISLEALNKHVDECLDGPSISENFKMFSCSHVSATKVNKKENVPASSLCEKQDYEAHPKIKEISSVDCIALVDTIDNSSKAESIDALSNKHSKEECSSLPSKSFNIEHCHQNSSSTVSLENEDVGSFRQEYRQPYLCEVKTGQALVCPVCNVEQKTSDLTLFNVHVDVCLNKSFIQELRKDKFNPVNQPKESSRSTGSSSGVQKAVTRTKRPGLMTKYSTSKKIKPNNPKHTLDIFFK
Test: qHTS for Inhibitors of Polymerase Kappa
Details: purified Pol kappa, fluorescent DNA synthesis assay, 10 min; series mostly up to 107 µM; activity, negative = inhibition: at the top concentration
Summary of the method: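 Enzyme at 10 nM met test compounds for 15 min at room temperature. Substrate addition (50 nM final) began the reaction, which was monitored by fluorescence at 0 and 10 min.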
% is scaled to controls: 0 for no effect and ±100 for the full control effect; potency is read from the fitted curve at half-maximal effect; tags tell the direction and shape of the fitted curve.

SMILES	Potency	activity, negative = inhibition
C=CCn1c(SCC(C)=O)nc2scc(-c3ccco3)c2c1=O	inconclusive: 56.2 µM [inhibitor, partial curve, poor fit]	–
CSc1ccc(CCNC(=O)CSc2ccsc2[N+](=O)[O-])cc1	inconclusive: 100 µM [inhibitor, single point]	–
O=C(/C=C/c1ccco1)c1ccc(NC(=O)C23CC4CC(CC(C4)C2)C3)cc1	inconclusive: 89.1 µM [inhibitor, single point]	–
CCN(CC)CCn1c(NCc2cccc(OC)c2OC)nc2ccccc21	–	inactive: -0.43%
COc1ccc(S(=O)(=O)N2CCN(C(=O)C3COc4ccccc4O3)CC2)cc1 (stereo unspecified)	active: 28.2 µM	–
O=C(O)c1ccc(Nc2nc(-c3cc4ccccc4oc3=O)cs2)cc1O	active: 56.2 µM	–
Cc1ccc2scc(N3CCN(c4ccc(F)cc4)CC3)c(=O)c2c1	–	inactive: -2.77% [at 60.1 µM]
COc1ccc(Cc2nnc(NC(=O)Cc3cccs3)s2)cc1	active: 14.1 µM	–
COc1ccc(Cl)c(Cn2c(NCc3ccco3)nc3c2c(=O)n(C)c(=O)n3C)c1	inconclusive: 79.4 µM [inhibitor, partial curve]	–
CCn1cnc2cc(NCc3ccc(OC)cc3)ccc21	–	inactive: -8.96%
CCOc1ccc(NS(=O)(=O)c2ccc(C(=O)NCC(c3ccc(OC)cc3)N3CCOCC3)cc2)cc1 (stereo unspecified)	inconclusive: 89.1 µM [inhibitor, partial curve, poor fit]	–
CCOC(=O)c1ccc(N2C(=O)c3n[nH]c(-c4ccco4)c3C2c2ccc(O)c(OC)c2)cc1 (stereo unspecified)	inconclusive: 89.1 µM [inhibitor, single point]	–
CC1(C)CC(=O)C2=C(C1)c1c(ccc3ccccc13)NC2c1ccc(OCC(=O)O)cc1 (stereo unspecified)	inconclusive: 89.1 µM [inhibitor, partial curve, poor fit]	–
O=C(Nc1nc2nc(-c3ccccc3)cc(=O)n2[nH]1)c1ccc(Cl)cc1	–	inactive: -17.7%
O=C(c1cc2nc(C3CC3)cc(C(F)F)n2n1)N1CCOCC1	active: 79.4 µM	–
C[C@@H](O)CC(=O)O	inconclusive: 79.4 µM [inhibitor, partial curve, poor fit]	–
Cc1ccc2oc(-c3cc(NC(=O)c4ccco4)ccc3Cl)nc2c1	inconclusive: 89.1 µM [inhibitor, single point]	–
O=C(NCc1ccc(Cl)cc1)c1ccc(Br)o1	inconclusive: 70.8 µM [inhibitor, partial curve, poor fit]	–
COc1ccc(C(=O)N2CCC(c3nc(-c4ccc(S(=O)(=O)N5CCCC5)cc4)no3)CC2)cc1	–	inactive: -14%
Cc1nnc(SCC2=C(C(=O)O)N3C(=O)C(NC(=O)Cc4ccccc4)C3SC2)s1 (stereo unspecified)	inconclusive: 89.1 µM [inhibitor, partial curve, poor fit]	–
COc1ccc([N+](=O)[O-])cc1NC(=O)CCS(=O)(=O)c1ccc(Br)cc1	inconclusive: 89.1 µM [inhibitor, single point]	–
O=C(CSc1ccc2c(c1)OCCO2)NCc1ccco1	inconclusive: 89.1 µM [inhibitor, single point]	–

SMILES	Potency	activity, negative = inhibition
CSc1nc2c(c(=O)[nH]1)C(c1cccs1)C1=C(CCCC1=O)N2 (stereo unspecified)	inconclusive: 39.8 µM [inhibitor, partial curve, poor fit]	–
Fc1ccc(Nc2nc(NCc3ccco3)nc3nccnc23)cc1	–	inactive: -0.427%
CNc1nc(N/N=C/c2cc([N+](=O)[O-])ccc2F)nc(Nc2ccccc2)n1	–	inactive: 7.86%
Cc1ccc(NC(=O)CS(=O)CC(=O)Nc2ccc(N3CCOCC3)cc2)cc1Cl (stereo unspecified)	inconclusive: 89.1 µM [inhibitor, single point]	–
O=C1c2cccc3cccc(c23)N1Cc1ccc(F)cc1	–	inactive: -18%
N#C/C(=C/c1ccco1)C(N)=S	–	inactive: -7.69%
CCCN=C1N(CC)C[C@@H]2[C@@H]3C(=O)N(Cc4ccccc4)C(=O)[C@@H]3[C@](Cc3ccccc3)(C(=O)OC)N12	inconclusive: 89.1 µM [inhibitor, single point]	–
CC(=O)Oc1c2occc2cc2ccc(=O)oc12	inconclusive: 89.1 µM [inhibitor, single point]	–
Cc1ccc(NC(=O)Cn2c(=O)n(Cc3nc(C)no3)c(=O)c3cc4c(cc32)OCO4)c(Cl)c1	–	inactive: -25.8%
NC(CSC(c1ccccc1)(c1ccccc1)c1cccc2ccccc12)C(=O)O (stereo unspecified)	inconclusive: 89.1 µM [inhibitor, single point]	–
Cc1ccc(NC(=O)c2sc(-n3nc(C)c(Cc4ccc5c(c4)OCO5)c3C)nc2C)cc1C	–	inactive: -18.8%
COc1ccc(C2CC(=O)Nc3ccccc3S2(=O)=O)cc1OC (stereo unspecified)	inconclusive: 89.1 µM [inhibitor, single point]	–
CN(C)C(=O)COC(=O)c1ccc(S(=O)(=O)NCc2ccco2)cc1	inconclusive: 100 µM [inhibitor, single point]	–
COc1ccc(NC(=O)CSc2nc(-c3ccco3)nc3cc(=O)[nH]n23)cc1	inconclusive: 89.1 µM [inhibitor, single point]	–
O=C(CCCN1C(=O)/C(=C\c2ccccc2)SC1=S)Nc1ccc(C(=O)O)cc1	–	inactive: -18%
O=C(Nc1ccc(-c2nnn(CC(=O)N3CCN(C(=O)c4ccco4)CC3)n2)cc1)c1ccc(F)cc1	inconclusive: 100 µM [inhibitor, single point]	–
CCOC(=O)C1=C(C)NC(=S)NC1c1ccco1 (stereo unspecified)	inconclusive: 44.7 µM [inhibitor, partial curve]	–
CCC(C)(C)c1ccc(CC(C)CN2C[C@@H](C)O[C@@H](C)C2)cc1 (stereo partly specified)	–	inactive: 4.15% [at 19.4 µM]
Cc1ccc(-n2c(SCC(=O)NCc3ccco3)nc3sc(C)c(C)c3c2=O)cc1	–	inactive: -21.4%
COc1ccc(NC(=O)C2COc3ccccc3O2)cc1S(=O)(=O)N1CCOCC1 (stereo unspecified)	–	inactive: -4.22%
COc1cc(/C=C/C(=O)O)ccc1S(=O)(=O)N1CCCc2ccccc21	–	inactive: -18.9%
CCN(CC)CCNS(=O)(=O)c1ccc2[nH]cc(C(=O)O)c(=O)c2c1	inconclusive: 100 µM [inhibitor, single point]	–

SMILES	Potency	activity, negative = inhibition
O=S(=O)(Nc1ccc(-c2nc3cccnc3s2)cc1)c1ccc(Cl)s1	–	inactive: -6.08%
CCOc1ccc(C2/C(=C(\O)c3cccc(OC)c3)C(=O)C(=O)N2c2ccccn2)cc1OC (stereo unspecified)	inconclusive: 100 µM [inhibitor, single point]	–
C=CC1=C(C(=O)O)N2C(=O)C(NC(=O)Cc3ccccc3)C2SC1 (stereo unspecified)	active: 79.4 µM	–
c1ccc(C(Cc2nc(-c3ccncc3)no2)c2ccccc2)cc1	inconclusive: 89.1 µM [inhibitor, single point]	–
O=C(NCc1ccco1)c1ccc(S(=O)(=O)N2CCOCC2)cc1	inconclusive: 89.1 µM [inhibitor, single point]	–
CC(=O)n1cc(/C=N/NC(=O)c2sc(C)nc2C)c2ccccc21	inconclusive: 50.1 µM [inhibitor, partial curve, poor fit]	–
O=[N+]([O-])c1c(Nc2ccccc2O)cc(Cl)c2nonc12	–	inactive: -1.72%
Cc1cccc(C(=O)NNC(=O)c2ccc(-c3ccccc3)cc2)c1	inconclusive: 89.1 µM [inhibitor, partial curve, poor fit]	–
O=C(Oc1ccccc1)N1CCC2(CC1)CCN(c1ncccn1)CC2	inconclusive: 0.0224 µM [inhibitor, full curve, poor fit]	–
Cc1cc(=O)n(CC(=O)NC(C)c2ccccc2)c2c1c(C)nn2C (stereo unspecified)	inconclusive: 89.1 µM [inhibitor, partial curve, poor fit]	–
Cc1cc(C(C)(C)C)cc(S(=O)(=O)NCCc2ccncc2)c1C	inconclusive: 89.1 µM [inhibitor, partial curve, poor fit]	–
CC(=O)N1Cc2ccccc2CC1C(=O)OCC(=O)c1c(N)n(C)c(=O)n(C)c1=O (stereo unspecified)	–	inactive: -21.9%
CN1C/C(=C/c2ccccc2[N+](=O)[O-])C(=O)/C(=C\c2ccccc2[N+](=O)[O-])C1	inconclusive: 89.1 µM [inhibitor, single point]	–
CC(Oc1ccc2ccc(=O)oc2c1)C(=O)NC(Cc1c[nH]c2ccc(O)cc12)C(=O)O (stereo unspecified)	inconclusive: 70.8 µM [inhibitor, partial curve]	–
CCOC(=O)c1noc2ncnc(Nc3cccc(C(F)(F)F)c3)c12	inconclusive: 89.1 µM [inhibitor, partial curve, poor fit]	–
CC(=O)Oc1ccc(/C=C/C(=O)CC2OC(Oc3cc(OC(C)=O)c4c(c3)O[C@@H](c3ccc(OC(C)=O)cc3)CC4=O)C(OC(C)=O)C(OC(C)=O)C2OC(C)=O)cc1 (stereo partly specified)	inconclusive: 0.0891 µM [inhibitor, partial curve, poor fit]	–
CCCOc1ccc(C(C)=O)cc1CSc1nc(O)cc(=O)[nH]1	inconclusive: 89.1 µM [inhibitor, single point]	–
COc1ccc(C(=O)Nc2c(N)nc(SCC(=O)Nc3ccc(NC(C)=O)cc3)[nH]c2=O)cc1	inconclusive: 89.1 µM [inhibitor, single point]	–
C[C@H]1c2cccc(O)c2C(O)=C2C(=O)[C@]3(O)C(O)=C(C(N)=O)C(=O)[C@@H](N(C)C)[C@@H]3[C@@H](O)[C@@H]21	inconclusive: 39.8 µM [inhibitor, partial curve, poor fit]	–
Cc1cc(O)c(C(C)C)cc1N=Nc1ccccc1C(=O)O	–	inactive: -18.4%
COc1cc(CC2COC(c3ccc(O)c(OC)c3)C2COC(C)=O)ccc1O (stereo unspecified)	active: 22.4 µM	–
COc1ccc(/C=N/NC(=O)c2ccc(O)cc2O)cc1CSc1ccccn1	active: 79.4 µM	–
